Among all 50,000 compounds or so, about 800 (1.6%) showed an effect of 50% or more. The list shows a part of the results.

The assay has as its target Bcl-2-like protein 10 (Homo sapiens) (UniProt Q9HD36). Briefly: TR3 peptide-Bcl-B binding displacers, biochemical primary FP assay, phenotype converters (AID 1240).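 Note: 0% = Bcl-B with tracer peptide and DMSO and 100% = tracer peptide lacking Bcl-B.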 The note with it: GST-Bcl-B / FITC-TR3 peptide fluorescence polarization; stronger effect = higher value; compound at 3.75 mg/L. (In general: Fluorescence polarisation rises when a labelled molecule tumbles more slowly, as on binding a larger partner.)
Sequence of UniProt Q9HD36 (Q9HD36 whole entry, looked up): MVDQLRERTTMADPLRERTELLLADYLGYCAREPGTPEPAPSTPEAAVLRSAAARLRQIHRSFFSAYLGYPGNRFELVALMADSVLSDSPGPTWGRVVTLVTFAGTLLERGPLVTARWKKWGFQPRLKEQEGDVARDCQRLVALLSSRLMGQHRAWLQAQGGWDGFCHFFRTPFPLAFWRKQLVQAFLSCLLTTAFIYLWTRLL
On to `Cc1[nH]n(-c2ccccc2)c(=O)c1/C=C1\C=c2ccccc2=N1`, for which the displacement was -10%. Under `Cc1ccnc(NC(=O)COc2ccccc2[N+](=O)[O-])c1` stands 4.4%; under `CC(C)Oc1ccccc1C1CC(=O)Nc2c1cc(Br)c1ccccc21` (stereo not given), -1.9%. Under `Cc1cc(/C=N/NC(=O)CC#N)c(C)n1-c1ccc(N(C)C)cc1` stands -9.1%; under `O=C(c1ccc(Cl)cc1)N1CCN(c2ccc(F)cc2)CC1`, -4.8%.

Consider `O=C(/C=C/Nc1cccc(C(F)(F)F)c1)c1ccccc1`, for which the displacement was -1.3%. Then `Cc1cc(C)cc(N(CC(=O)NCC2CCCO2)S(=O)(=O)c2ccccc2)c1` (stereo not given), with -3.1%. As to `COc1cccc(C(=O)/C=C/c2ccc(Cl)cc2)c1`, the displacement was -2.2%. `COc1cc(C(O)c2nccn2C)cc(OC)c1OC` (stereo not given): the displacement came to 0%. Under `CCOc1ccc2c(c1)C(=C1SC(C(=O)OC)=C(C(=O)OC)S1)C(=S)C(C)(C)N2C(=O)C1CC1` stands 3.2%; under `CC(C)c1ccc(/C=C/c2nc(O)c([N+](=O)[O-])c(=O)[nH]2)cc1`, -2.6%; under `CCOc1ccccc1NC(=O)C(C)N1C(=O)c2ccccc2C1=O` (stereo not given), 8.8%. Then `N/C(Cc1cccs1)=N\OC(=O)COc1ccccc1`, with 14%; and `COc1ccc(-n2c(SCC(=O)Nc3ccc(C)cc3)nc(O)c(Cc3ccccc3)c2=O)cc1`, with 22.8%. Then `CC1=C(C(=O)OCc2ccccc2)C(c2cc3c(cc2Cl)OCO3)C2=C(CC(C)(C)CC2=O)N1` (stereo not given), with -1.7%; and `Cc1ccc(C)c(NC(=O)CCC2CCCCC2)c1`, with 1.4%.

Regarding `Cc1ccc(NC(=O)C(=O)NCCN2CCN(Cc3ccc(Br)cc3)CC2)cc1`, the displacement is 6.1%. Under `C=CCN1C(=O)/C(=C\c2ccc(OC(=O)c3cccc(Br)c3)c(OC)c2)SC1=S` stands 9.1%. For `CCC(=O)Nc1ccc2c(c1)N(C(C)=O)c1ccccc1CC2`, the displacement was -6.7%. Then `N/C(=N\OC(=O)c1ccccc1Br)c1cccc([N+](=O)[O-])c1`, with -6.4%; and `Cc1cc(/C=C2\C(=O)NC(=O)N(c3ccc4c(c3)OCO4)C2=O)c(C)n1-c1cccnc1`, with 136%. For the compound `OCCn1nc(-c2ccccc2)cc1-c1ccccc1`, the displacement stood at 8.4%. Under `Cc1ccc(N2C(=O)NC(=O)/C(=C\c3ccc(Cl)cc3)C2=O)cc1` stands 11%; under `CC(C)N1C(=O)/C(=C/C=C/c2ccc([N+](=O)[O-])cc2)SC1=S`, 9.4%; under `COc1ccccc1N1C(=O)CC(SC(=NCCc2ccccc2)Nc2ccccc2)C1=O` (stereo not given), 3.9%. Then `CCCCCN1C(=O)/C(=C2\SC(=S)N(NC(C)=O)C2=O)c2ccccc21`, with 0.1%; and `CC(C)CN1C(=O)c2ccc(C(=O)Nc3ccc(C(C)C)cc3)cc2C1=O`, with 4.4%; and `O=[N+]([O-])c1ccc(-c2[nH]c(-c3cccs3)nc2-c2ccccc2)cc1`, with -1.6%. Under `CC(=O)c1ccc(NC(=O)CSc2ncn[nH]2)cc1` stands 8.2%. Regarding `O=C(NCc1cccnc1)c1ccc(-c2ccccc2)cc1`, the displacement was -9.1%. Under `Cc1cccc(NC(=O)c2c(NC(=O)C(C)(C)C)sc3c2CCC3)c1` stands -2.3%; under `Cc1ccc(C(C)NC(=O)Cc2ccccc2)c(C)c1` (stereo not given), 10.5%. Under `O=C(NCc1ccncc1)c1cccc(Br)c1` stands 23.9%; under `O=C(/C=C/c1ccc(Cl)cc1)Nc1ccc(F)c([N+](=O)[O-])c1`, 11.9%; under `COc1ccc(C2CC(=O)C3=C(C2)Nc2ccccc2NC3c2ccccc2OC(C)C)cc1OC` (stereo not given), -1.9%. As to `O=C(COc1cc2oc(=O)cc(-c3ccccc3)c2cc1Cl)c1ccc(Cl)cc1`, the displacement was -10%. Then `Clc1ccc(N=Cc2cccc(OCc3ccccc3)c2)cc1Cl`, with -2.7%; and `C=CCN1C(=O)/C(=C\c2cc(OC)c(O)c([N+](=O)[O-])c2)C(=O)NC1=S`, with 22.2%. Then `N#CCCOCc1cccc2ccccc12`, with 12.6%; and `CC(C)c1ccc(NC(=O)Nc2cccc3ccccc23)cc1`, with 12.9%; and `CNC(=O)CC1Sc2ccccc2NC1=O` (stereo not given), with -9.6%. Under `Cc1ccc(-n2c(C)cc(/C=N/NC(=O)c3ccncc3)c2C)c(C)c1` stands -16.7%; under `O=S(=O)(c1ccccc1)N1CCN(Cc2ccncc2)CC1`, -1.9%. On to `COc1ccc(S(=O)(=O)NCCN2CCOCC2)cc1`, for which the displacement came out at 2.1%. Then `C/C(=C\C(=O)c1ccccc1)Nc1cc(C)ccc1Cl`, with 4.5%; and `N/C(=N\OC(=O)c1ccc(Cl)c([N+](=O)[O-])c1)c1ccccc1`, with -3.2%; and `CN(C(=S)Nc1ccccc1)c1ccccc1`, with 3.5%. With `N/C(=C\C(=O)c1ccccc1O)C(Cl)(Cl)Cl`, the displacement is -1.4%.

Regarding `COc1ccc(-c2cc(C(=O)Nc3cc([N+](=O)[O-])ccc3Cl)c3ccccc3n2)cc1OC`, the displacement is -1.5%. Then `CC(C)COc1ccc(C(=O)Nc2ccc3oc(-c4cccnc4)nc3c2)cc1`, with -6.5%; and `CC(C(=O)NCc1ccco1)N1C(=O)c2ccccc2C1=O` (stereo not given), with 13.1%; and `Cc1c(Nc2nc3nonc3nc2Nc2cccc(Cl)c2)c(=O)n(-c2ccccc2)n1C`, with 10%. Turning to `Cc1cccc(OCC(=O)Nc2cccc(Br)c2)c1`, the displacement was 4.9%.

Take `COC(=O)C1=C(C)NC2=C(C(=O)CC(c3ccccc3Cl)C2)C1c1ccc(Cl)cc1` (stereo not given): the displacement amounted to 5.2%. Under `O=C(COc1ccc(Cl)cc1)NC1=NN(c2ccccc2)C(=O)C1` stands -11%. Then `CCOc1ccc2cc(S(=O)(=O)N3CCCCC3)ccc2c1`, with -5.5%; and `Cc1onc(-c2ccccc2Cl)c1C(=O)N1CCCc2ccccc21`, with 7.4%. For the compound `Cc1[nH]nc(-c2ccccc2)c1Sc1ccccc1`, the displacement was -68.1%. Then `COC(=O)c1ccc(-n2ncnc2-c2ccc(Br)cc2)cc1`, with -5.4%; and `COc1ccc(NC(=O)c2ccc([N+](=O)[O-])cc2)cc1Cl`, with 4.7%. Under `O=C1N=C(N2CCCC2)S/C1=C\c1ccccc1` stands -5.7%; under `O=C(Cc1ccccc1)NC(NC(=O)Cc1ccccc1)c1ccc(Br)cc1`, 3.7%; under `O=[N+]([O-])c1ccc(N2CCOCC2)cc1N1CCCC1`, -4.6%. Under `COc1ccc(N2C(=O)NC(=O)/C(=C/c3ccc(OCc4ccccc4F)cc3)C2=O)cc1` stands 63.1%. Take `Cc1cc(-c2cc(-c3ccc(Cl)cc3)nc(N)c2C#N)co1`: the displacement is 19%.

For `CC(=O)c1ccc(N2CCN(S(=O)(=O)c3ccccc3)CC2)c(F)c1`, the displacement amounted to 0.7%. Under `O=C(/C=C/c1ccc(F)cc1)Nc1ccc(F)c([N+](=O)[O-])c1` stands -3%; under `CC(Oc1ccc(Cl)cc1Cl)C(=O)Nc1c(Cl)cccc1Cl` (stereo not given), 3.8%; under `COc1cccc(N2C(=O)CC(N3CCN(CCN=CC4=C(O)CC(C)(C)CC4=O)CC3)C2=O)c1` (stereo not given), -7.7%.

As for `COc1ccc(C2N(c3ccccc3)CCN2c2ccccc2)cc1O`, the displacement was -1.8%. Then `O=C(CN(c1cccc([N+](=O)[O-])c1)S(=O)(=O)c1ccccc1)NCCSc1ccccc1`, with 2%.

Consider `COc1ccc(N(CC(=O)Nc2ccc(OC)cc2OC)S(=O)(=O)c2ccccc2)cc1`, for which the displacement was 1.9%. Regarding `COc1ccccc1N=C(NOCc1ccc(Cl)cc1Cl)c1nonc1N`, the displacement is -7.3%. Then `Cc1ccc(-c2nnc(Nc3ccc4c(c3)nc(C)n4C)c3ccccc23)cc1`, with 2.4%; and `CCCC(=O)Nc1ccc(-c2cc3ccccc3oc2=O)c(C)c1`, with -4.7%; and `CC(=O)c1cccc(Nc2nc(-c3ccc(Br)cc3)cs2)c1`, with 8.2%.

As for `O=C(Nc1ccc(I)cc1)c1ccc(I)cc1`, the displacement was -4.7%. Then `COc1ccc(N(CC(=O)Nc2ccc(C(C)C)cc2)S(=O)(=O)c2ccccc2)cc1Cl`, with 13.6%; and `O=C(NC(=S)Nc1ccc(Cl)c(-c2nc3ccccc3o2)c1)c1ccccc1Cl`, with 6.1%; and `C/C(=N\N1CCN(Cc2cccc3ccccc23)CC1)c1ccccc1O`, with -12.3%. Consider `Cc1ccc(/C=C/C(=O)NC(=S)Nc2ccc(S(N)(=O)=O)cc2)cc1`, for which the displacement worked out at 8.5%. Turning to `CCOc1ccccc1NC(=O)c1cccc(C)c1`, the displacement is -11.3%.

`O=C(Nc1ccc(OCC(=O)N2CCOCC2)cc1)c1ccccc1F`: the displacement is -6%.

Take `CN1C(=O)/C(=C/c2ccc(O)c(O)c2)SC1=S`: the displacement stood at 14%. Then `COc1ccc(C(=O)Nc2cc(C(F)(F)F)cc(C(F)(F)F)c2)cc1OC`, with -5.6%. Then `O=C(NN1C(=O)c2ccccc2C1=O)c1cccs1`, with 2.1%; and `Cc1onc(-c2c(Cl)cccc2Cl)c1C(=O)Nc1cc(C(N)=O)cc(C(N)=O)c1`, with -1.6%; and `O=C1CC(N2CCN(c3ccc(Cl)cc3)CC2)C(=O)N1c1ccc(Cl)c(Cl)c1` (stereo not given), with 1.3%. Under `Cc1nc2cc(-c3cccc(F)c3)[nH]n2c(=O)c1Cl` stands 11.8%; under `CCc1nnc(NC(=O)Nc2ccc(Cl)cc2)s1`, 12.7%; under `Cc1ccc(Cl)cc1NC(=O)c1cccc(N(C)C)c1`, 13.8%. `COc1ccc(C(=O)N/N=C(/C)c2ccc3c4c(cccc24)CC3)cc1`: the displacement was -11.3%. As to `COc1ccc(C)cc1NC(=O)c1cc(C(F)(F)F)cc(C(F)(F)F)c1`, the displacement worked out at 7.7%.

`Cc1cc(C)c(NC(=O)COc2cccc(Br)c2)c(C)c1`: the displacement was -5.8%. Under `CCN1C(=O)/C(=C\c2cccc([N+](=O)[O-])c2)C(C(=O)OC)=C1C` stands -3.4%; under `O=C(N=Nc1c(O)n(CN2CCCCCC2)c2ccccc12)c1cccnc1`, 23.4%; under `FC(F)(F)Oc1ccc(N=Cc2c[nH]c3ccccc23)cc1`, 5.5%. Under `O=CNc1nonc1NNc1ccccc1` stands 9.5%. Under `COc1cccc(/C=C(\C#N)c2nc3ccc(C)cc3[nH]2)c1O` stands 10.4%. Take `C=CCNc1ncnc2ccc(Br)cc12`: the displacement came to 8.2%. Consider `CC(O)c1ccc(NC(=O)c2cnn3c2NC(c2cccs2)CC3C(F)(F)F)cc1` (stereo not given), for which the displacement was found to be 6.5%. Then `COc1cc(OC)c(OC)cc1CN1CCN(C2CCCCC2)CC1`, with 4.9%. Then `COc1ccc(/C=C2\C(=O)NC(=O)N(c3cccc(C)c3)C2=O)c(C)c1`, with -8.9%; and `CCOC(=O)c1c(NC(=O)c2ccc(C)o2)sc2c1CCC(C)C2` (stereo not given), with 7.9%; and `Cc1ccc(S(=O)(=O)Oc2cccc(/C=c3/sc4nc5ccccc5n4c3=O)c2)cc1`, with -0.5%.

Regarding `CCOP(=O)(OCC)/C(=N/OC(=O)c1ccccc1C)C(N)=O`, the displacement was -2.7%. Then `COc1ccccc1NCC(O)Cn1c2ccc(Cl)cc2c2cc(Cl)ccc21` (stereo not given), with -3.3%; and `COc1ccccc1C(=O)N/N=C(\C)c1cccnc1`, with -5.4%; and `Cc1cccc(C)c1OCCCCN1CCOCC1`, with 0%. Then `Cc1nccn1S(=O)(=O)c1ccc(Cl)cc1Br`, with 5%.
